Laboratory results taken from PubChem BioAssay AID686971 (National Center for Advancing Translational Sciences (NCATS), 2013).
Out of some 360,000 compounds screened, about 7,500 (2.1%) were called active. This list was built around the results that the source calls inconclusive (neither active nor inactive); the mix of calls is not that of the screen. The call rests on the fitted dose curve; in most records, active means well fitted cell-killing curve with a large enough effect; inconclusive means small, poorly fitted or top-dose-only effect, or effect the other way, or another doubt; inactive means no such curve, though single readings can be large or run the other way. Potencies of inconclusive entries are left out as doubtful fits.

assay: qHTS for induction of synthetic lethality in tumor cells producing 2HG: qHTS for the HT-1080-IDH1KD cell line; conditions: HT-1080 IDH1 knockdown viability, ATP luminescence, 48 h; activity, negative = toxicity: at 46.1 µM (top of the series) unless noted;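 on activity, negative = toxicity: 0% = DMSO wells and -100% = cell-free medium wells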
Method in brief: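 HT-1080-IDH1KD cells (IDH1 knocked down), 750/well in RPMI with 5% FBS, treated with compound 48 h at 37 degrees C. Viability by CellTiter-Glo luminescence, normalised to DMSO and no-cell wells; concentration-response curves classed.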
Potency means the concentration at half of the fitted maximal effect; tags describe the fitted curve by direction and shape.

| SMILES | Potency | activity, negative = toxicity |
| --- | --- | --- |
| O=C(NNc1ccc([N+](=O)[O-])cc1)C1CC1c1ccccc1 (stereo not drawn) | inconclusive [cytotoxic, partial curve] | – |
| COc1ccc(/C=N/NC(=O)c2ccoc2C)cc1COc1c(C)cccc1C | active: 5.17 µM | – |
| O=C(Nc1cccc(Br)c1)c1cccc(OC(=S)N2CCOCC2)c1 | inconclusive [cytotoxic, partial curve, poor fit] | – |
| CCc1nc(Sc2nc(C)cc(C)n2)c2oc3ccccc3c2n1 | inconclusive [cytotoxic, single point] | – |
| CNc1nc(Nc2ccc(C)c(Cl)c2)c2cnn(C)c2n1 | inconclusive [cytotoxic, single point] | – |
| COc1ccc(N2CCN(c3ccc(S(=O)(=O)N(C(C)C)C(C)C)cn3)CC2)cc1 | inactive | – |
| COc1cc2c(C(F)(F)F)c(-c3ccc(C#N)cc3)oc(=O)c2cc1OC | inactive | – |
| NC(=O)c1ccc(NC(=O)c2cccc(Oc3ccccc3)c2)cc1 | inconclusive [cytotoxic, single point] | – |
| Cc1ccccc1C(=O)OC1OC(=O)C(Cl)=C1N1CCOCC1 (stereo not drawn) | inactive | – |
| CCNC(=O)N(C)C[C@H]1N[C@@](C)(C(=O)OC)[C@H]2C(=O)N(C)C(=O)[C@@H]12 | inactive | – |
| C=CC(=O)N=c1sc2ccccc2n1-c1ccccc1 | active: 10.3 µM | – |
| NC(c1csc(Nc2nccc(C(F)(F)F)n2)n1)C1CCCCC1 (stereo not drawn) | active: 20.6 µM | – |
| Cc1[nH]n(-c2ccccc2)c(=O)c1/C=N/NC(=O)c1cccc(F)c1 | active: 7.31 µM | – |
| CN(C(=S)NC(=O)c1ccccc1Br)C1CCCCC1 | active: 2.24 µM | – |
| O=C(Nc1nnc(SCc2ccc(F)cc2)s1)C1CC(=O)N(Cc2ccccc2)C1 (stereo not drawn) | inactive | – |
| CCN(CC)Cc1cc2[nH]c3c4ccc(Cl)cc4ncc3c2cc1OC | inconclusive [cytotoxic, partial curve] | – |
| O=C(/C=C/Nc1ccc(F)c(F)c1)c1ccc(Br)cc1 | – | inconclusive: 23.7% |
| Cn1c(SCC(=O)Nc2ccccc2-c2ccccc2)nnc1-c1ccco1 | inactive | – |
| CC(OC(=O)Cc1cccc(C(F)(F)F)c1)C(=O)Nc1ccc(Cl)cn1 (stereo not drawn) | inconclusive [rising, single point] | – |
| COc1ccc(C=C2C=C(C(C)(C)C)C(=O)C(C(C)(C)C)=C2)cc1OC | active: 18.4 µM | – |
| Cc1ccc(C(=O)N2CCC(C(=O)c3ccc(F)cc3)CC2)cc1 | inactive | – |
| S=C(Nc1cccc(Cl)c1)Nc1ccccc1Oc1ccccc1 | inconclusive [cytotoxic, single point] | – |
| Cc1cccc(OCC(=O)N/N=C/c2cn[nH]c2-c2ccc(Cl)c(Cl)c2)c1 | inconclusive [cytotoxic, single point] | – |
| Cc1nc(-c2ccc(C(=O)Nc3cccc(F)c3)cc2)cs1 | inconclusive [cytotoxic, full curve, poor fit] | – |

| SMILES | Potency | activity, negative = toxicity |
| --- | --- | --- |
| Cc1csc(NC(=O)/C=C/c2ccco2)n1 | inconclusive [cytotoxic, single point] | – |
| CCN1C(=O)/C(=C/c2cc(C)n(C)c2C)SC1=Nc1ccc(OC)cc1 | inconclusive [cytotoxic, partial curve] | – |
| COc1ccc(CNC(=O)C(C)n2nc(C)c3c(C)n(-c4ccc(C)cc4)nc3c2=O)cc1 (stereo not drawn) | inactive | – |
| CN(C)c1nc(N/N=C/c2ccccc2O)nc(Nc2ccc(F)cc2)n1 | active: 13 µM | – |
| CCCc1cc(C(N)=O)c(NC(C)=O)s1 | inconclusive [cytotoxic, single point] | – |
| COc1cccc(C(Nc2ccccc2)c2ccc3ccc(C)nc3c2O)c1 (stereo not drawn) | active: 7.31 µM | – |
| CC1CN(c2ccc([N+](=O)[O-])cc2C#N)CC(C)O1 (stereo not drawn) | inactive | – |
| Cc1c(C(C)C)c(=O)n(-c2ccc(S(=O)(=O)NC3CC3)cc2)n1C | inactive | – |
| Cc1nc(N)sc1-c1csc(N(C)c2ccc(O)cc2)n1 | inconclusive [cytotoxic, single point] | – |
| COc1ccc(C(=O)/C=C/N(C)C)cc1OC | inconclusive [cytotoxic, partial curve] | – |
| COc1ccc(S(=O)(=O)N2CC(C)N(C(=O)N(C)C)C2C)cc1 (stereo not drawn) | inactive | – |
| COc1cc(NC(=O)CN2CCC(C)CC2)c(C)cc1[N+](=O)[O-] | – | inconclusive: 32.8% |
| Cc1cc(Nc2cccc(F)c2)nc(NCc2ccccc2)n1 | inconclusive [cytotoxic, single point] | – |
| O=C1c2ccccc2C(=O)c2c(NCCCN(CCO)CCO)cccc21 | inconclusive [cytotoxic, single point] | – |
| CC1(C(=O)NCc2cccs2)Cc2c(-c3ccccc3)ccnc2O1 (stereo not drawn) | inconclusive [cytotoxic, full curve] | – |
| Cc1nc2cc(Oc3nc(NCCN(C)C)nc4ccsc34)ccc2s1 | inconclusive [cytotoxic, single point] | – |
| CCCCCc1c(C)nc(Nc2ccc(F)cc2)[nH]c1=O | inconclusive [cytotoxic, single point] | – |
| Cn1c(-c2ccc(Br)o2)nc2ccccc21 | active: 18.4 µM | – |
| CC(=O)/C(C#N)=C1\NC(=O)C(Cc2ccc(C)c(C)c2)S1 (stereo not drawn) | inconclusive [cytotoxic, full curve] | – |
| CC1=C(C(=O)OCc2ccccc2)C(c2ccc(Cl)cc2)NC(=O)N1C (stereo not drawn) | inconclusive [cytotoxic, single point] | – |
| O=C(c1nc2ccc(Cl)cn2c1CNCC[C@@H]1C[C@@H]2C=C[C@H]1C2)N1CCCCCCC1 | inconclusive [cytotoxic, partial curve] | – |
| COc1cc(/C=N/Nc2cc(C)nc(NS(=O)(=O)c3ccc(C)cc3)n2)ccc1O | inconclusive [cytotoxic, single point] | – |
| COc1ccccc1NC(=O)c1ccc(-c2ccc(Br)cc2)o1 | active: 18.4 µM | – |
| CCCCNc1c(-c2ccc(OC)c(SC3CCCCC3)c2)nc2cnccn12 | inconclusive [cytotoxic, single point] | – |
